About 6,200 (6.6%) of roughly 94,000 compounds were called active. The shares of active, inactive and inconclusive entries below differ from those in the screen. Calls follow the shape of the dose curve; as a rule, active = well fitted inhibition curve with a large enough effect; inconclusive = small, poorly fitted or top-dose-only effect; inactive = flat fitted curve, though single readings scatter. A potency beside an inconclusive call is a rough fit, not a confirmed value.
Assay: Cytotoxic Profiling in HEK 293 Cell Line of Diverse Libraries Using Quantitative High-Throughput Screening; also: nearly all actives have a fitted effect of over 60% in size
Conditions: HEK 293 viability, ATP luminescence (CellTiter-Glo), 48-72 h; activity change, negative = cytotoxicity: at 115 µM (top of the series) unless noted; series mostly up to 115 µM
Method in brief: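 HEK 293 cells at 250 cells/well were exposed to compounds by pintool transfer for 48 or 72 hr at 37 degree Celsius, 5% CO2. Viability was read as ATP-coupled luminescence with CellTiter-Glo after 10 min at room temperature.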
For `CSCC(=O)N[C@H]1CCN2C(=O)c3ccc(Cl)cc3NC(=O)[C@@H]2C1`, the Potency was inconclusive: 126 µM [inhibitor, single point]. In the case of `Cc1cc(F)ccc1-c1[nH]nc2ncc(-c3cccnc3)nc12`, the Potency is reported as inconclusive: 50.1 µM [inhibitor, partial curve, poor fit]. For `CNC(=O)c1cc(C2CC2)nc2c1c(C1CCN([S+](=O)([O-])c3ccccc3)CC1)nn2C`, the Potency was inconclusive: 79.4 µM [inhibitor, partial curve]. With `CCc1nc2c(c(-c3ccc(O)cc3)n1)CN(Cc1ccsc1)CC2` the “activity change, negative = cytotoxicity” value was inactive: -14.8%. For `c1ccc(-c2nnc3ccc(NC4CCCCC4)nn23)nc1`, the Potency was inconclusive: 63.1 µM [inhibitor, partial curve, poor fit]. With `CCc1nc2c(c(-c3ccc(O)cc3)n1)CN(Cc1cccc3ccccc13)CC2` the Potency was active: 89.1 µM. For `CC(C(=O)N1CCCN(c2cc(-c3ccccc3)[nH]n2)CC1)c1ccccc1` (centres undefined), the Potency was inconclusive: 79.4 µM [inhibitor, partial curve, poor fit]. For `O=C1Nc2ccccc2C2(CCN(C(=O)c3ccccc3)C2)O1` (centres undefined), the Potency was inconclusive: 100 µM [inhibitor, partial curve, poor fit]. For `O=C1NC2(CCN([S+](=O)([O-])c3cccs3)C2)Oc2ccccc21` (centres undefined), the “activity change, negative = cytotoxicity” value was inactive: -23.3%. In the case of `COC(=O)[C@@H](C)NC(=O)[C@H]1CN(C(=O)c2cccnc2)CCN1S(C)(=O)=O`, the “activity change, negative = cytotoxicity” value is reported as inactive: 1.91% [at 172 µM]. In the case of `Cc1ccc(NC(=O)N2C[C@@H](F)C[C@H]2C(=O)N2CCc3ccccc3C2)cc1Cl`, the Potency is reported as active: 28.2 µM. For `Cc1cccc(-c2cccc(CN3CCC(NC(=O)c4ccc(C(F)(F)F)cc4)CC3)c2)c1`, the “activity change, negative = cytotoxicity” value was inactive: -22.5%. With `Fc1ccc(CN2CC[C@H](c3nnc(Cc4ccccc4)o3)C2)cc1F` the Potency was inconclusive: 100 µM [inhibitor, partial curve, poor fit]. In the case of `CN1CCN(Cc2nc(C3(O)CCN(Cc4ccccc4F)CC3)cs2)CC1`, the Potency is reported as inconclusive: 63.1 µM [inhibitor, full curve]. In the case of `Cc1noc(C)c1[S+](=O)([O-])N1CCn2c(nnc2-c2ccc(Cl)cc2)C1`, the “activity change, negative = cytotoxicity” value is reported as inactive: -21.2%. With `Cc1ccccc1NC(=O)C1CCc2nc(N3CCN(C(=O)C(C)C)CC3)sc2C1` (centres undefined) the Potency was active: 10 µM. With `O=C(NCCc1nc(-c2cccnc2)n[nH]1)C1NCCc2[nH]cnc21` (centres undefined) the Potency was inconclusive: 89.1 µM [inhibitor, single point]. For `COc1ccc(N2CC(c3noc(-c4ccccc4OC)n3)CC2=O)cc1` (centres undefined), the Potency was inconclusive: 63.1 µM [inhibitor, partial curve, poor fit]. With `O=C(C1CCOCC1)N1CC(CNc2ccccc2)C2(C1)CN(c1ccccc1)C2` (centres undefined) the Potency was inconclusive: 100 µM [inhibitor, partial curve].
% is scaled to controls: 0 for no effect and ±100 for the full control effect; potency is read from the fitted curve at half-maximal effect; tags tell the direction and shape of the fitted curve.
